In all, about 33,000 sequences were measured (“E-score (-0.5 to 0.5)”: median about -0.016, highest 2% from about 0.31 on). Some of the results follow.
target: Cst6 (UniProt P40535); assay: PBM E-score (8-mer binding enrichment) (E-score (-0.5 to 0.5)); higher = stronger / more preferred TF binding; most listed sequences are background and not binding sites; conditions: protein concentration: 200 nM; construct: GST-DNA-binding domain
Method in brief: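 Each ungapped eight-base word and its reverse complement, pooled, received an E-score from the Universal PBM Analysis Suite. Underlying scans, normalised with masliner, recorded fluorescent anti-GST bound to GST-tagged yeast transcription factors. These were applied at about 100-200 nM to universal all-10-mer Agilent arrays double-stranded by primer extension.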

Sequence	PBM E-score
CATTTCCG	0.12
AAGGGTGC	-0.142
TAGTCTCA	-0.135
ACCCCACA	-0.107
ATTACCGC	0.154
GTCACTAA	0.302
AGGCGCGA	0.205
GCTTCCCC	-0.255
ATCAACCC	-0.0415
TCAAGGGA	-0.0709
AGCTCCAA	0.0556
CCTGGCAA	-0.276
GGCCTCGA	-0.178
TCAGACCA	-0.0207
GAACTAAA	0.173
AGCTTGAA	-0.0483
ATCATCTG	0.178
AAGATTTC	0.0274
ACCATTTG	0.0351
AACTATAT	0.236
AGTAGCTG	-0.113
CGTGCTAG	-0.275
GAGGCGTA	0.0667
CGTGTCAA	-0.112
CAGTCCCG	-0.301

Sequence	PBM E-score
GCGATTAA	0.189
CGAGGAAG	-0.212
AGTGCGTA	-0.0215
GAAGGATC	-0.203
ACCACGTA	0.132
CGTGAGCA	-0.0624
CAATACCG	-0.0941
ACTTCTCA	0.0961
GACAGTGC	0.0144
CGCTTCCA	0.0555
GTTTGGAA	0.0575
ATTTTACC	0.264
GGACAGAC	-0.185
CGCGACAC	0.00659
ATAGGCGG	0.0357
CCTTTCAG	-0.0309
GGAGCGCA	-0.354
CAAGTTAC	0.0951
CCTTATGA	0.159
ACATGCGT	0.0576
ACAATGTG	0.0986
GTTTGAAA	0.174
CGCTTACC	-0.0239
GCCACATA	0.0537
AAATGCGG	0.106

Sequence	PBM E-score
CACCACCA	-0.00098
CCTTAACG	0.047
GTTACTCA	0.0812
CTTGCGCA	0.131
CCGACGGC	-0.0821
CGTGATGC	0.184
CGGGATGC	-0.276
GCGCATTA	-0.118
AGATCTTA	0.128
CTTTGCGC	0.228
CATTTCGC	0.0606
ATCAAGCG	0.199
AAAATGAA	0.155
CGACGGAC	-0.0405
GATGTGTA	0.0177
CCATTGGA	-0.142
CCTGTTTA	0.156
CACGTGGC	-0.0245
CGAGTAAG	0.0298
GGACCACC	-0.254
GGCCCACA	-0.175
CTTAAACC	-0.168
GACAATCA	-0.0343
ATCCGTAC	0.173
ACATGCAA	0.11

Sequence	PBM E-score
CGATGAAC	-0.0118
ACAAGTGG	-0.119
CCTCGCGA	-0.196
AGGCGGTC	-0.282
AGAAATAC	0.0948
AGGATACG	-0.0326
CTTTCTTC	-0.0997
CGATGTAG	-0.0606
AACAAATT	0.32
CTAACGGA	0.00797
GGAACATA	-0.0662
AGTATTTA	0.171
AGCTAGCT	0.0292
AACACGGT	-0.0651
GAGGAGGC	-0.21
CTGAAACA	-0.0169
ATGGTAGA	0.136
CTTCAAAC	-0.0167
AGCTAGTA	-0.0691
GCGATGAA	0.0225
GAAAAGTA	0.151
AATGTGCA	0.00635
TTGCGAAA	0.151
AAGTTTCC	0.0622
AAGCAAGC	-0.108

Sequence	PBM E-score
GTAAATAC	0.13
AGTGAGCG	-0.00374
GGAGTGCA	-0.15
GAATGAGA	-0.0479
AGCATGGG	-0.178
CCGTTCCC	-0.0554
ACAGCAAT	0.121
GAGCAGCA	0.0584
ATACGATC	0.0912
GATCTGCC	-0.116
AAAGAATC	-0.12
ACTTCGAT	0.179
CGCTACTC	-0.0758
AAGGGGTG	-0.193
GCCTGCAA	-0.222
AGTGTAGC	0.0136
AGAGCTAG	-0.0602
CTAGAGGA	-0.162
GTAGTCAC	-0.0594
CTAAGTAG	0.0461
AGTACCGG	-0.229
AGAATACC	0.109
GACCGGGC	-0.224
CGAGACTC	-0.165
GAGGTCGC	-0.02

Sequence	PBM E-score
TAGTTTAA	0.19
CATGCATG	0.0335
AGTGGCCA	-0.0581
AACTCATT	-0.0241
ACCGCCGT	0.209
GCGTAGCA	-0.0701
TAACCCTA	-0.197
GGGACGTA	0.0851
AAAAGTGT	0.0733
GCTCCCCA	-0.38
CTTGGGCA	-0.0886
ACCCTGCA	-0.0112
CAACATGG	-0.0222
ATGGCACG	0.111
AACGATTA	0.124
ATCGGCGA	-0.156
ATACGTAT	0.376
ATAGATTC	0.0789
CTGTAGCC	-0.0695
AAGCTTCC	-0.198
GGGCAGGA	-0.215
ATTATGTC	0.359
TGTAGCAA	-0.178
GCTCACCA	-0.205
AATTACCA	0.202

Sequence	PBM E-score
GCCCATAA	-0.228
CGCTTACA	0.0933
GAATCGAC	0.00906
CTAACCTA	1e-05
GAGACTGA	-0.0322
CAGTAATC	0.1
AGACAAAG	-0.0312
AACTTTAT	0.147
TAATAACA	0.245
GCCATGTA	-0.0589
ACGATCCA	-0.0144
ACTGACAT	0.267
CCTCTAAC	-0.116
GGCTAAAA	-0.0694
AGACGAGA	0.0197
ATAGATCC	-0.0277
ATTTTACG	0.316
CGAATGAG	0.167
ACCGGATC	-0.149
ATATTCAA	0.222
GGACAAGA	-0.0276
CCTAAGAA	0.0394
GTCCCCCA	-0.332
GCAATGCC	-0.0854
CCACGTAA	0.275

Sequence	PBM E-score
AACGATAC	-0.0951
GCATCGCA	-0.282
AATTAGAT	0.17
GCCGAAAC	-0.156
GATAGTCC	-0.124
CCACTCCG	-0.169
GTATTGGA	-0.038
AAGGTTGG	0.0155
GATTGAGA	0.141
CTTAGTCA	0.0314
AAGCTACG	0.0334
CTGGGAAC	-0.0551
ACTTTGGA	0.149
GGTTTAAC	0.00839
GCATCCAC	0.0482
ACTCTCTC	-0.0935
ATGCGTTG	0.143
ACTGTTTG	0.0599
AGTATACA	0.0734
GACTTAAA	0.112
ACAAGAAT	0.246
CAGAGCAG	-0.107
ACGGCCCG	0.0503
AATTGTAC	0.159
CAACATAC	0.209

Sequence	PBM E-score
GAGTGCGA	-0.199
CTTAAGCC	-0.0367
ACTTCACA	0.079
CCCAACGC	0.0283
GTTCATAA	0.0887
GTCTGTTA	-0.0274
AATCTACC	0.0596
GACACCTA	-0.203
ACACTTCT	0.0868
AGGGCGGC	-0.181
ATTGATAG	0.11
CCATATAC	0.154
CAGCAGTC	-0.258
ATATAACA	0.268
CTATGAAA	0.0508
TACAACAA	0.143
CGCTGAGA	-0.0296
TGCGTACA	0.0561
ACTGTCCG	-0.145
CTGTGGTA	-0.0525
AACCTTAC	0.196
GCCAGAAA	0.0609
AATGGTTA	0.0763
CCACGCCG	-0.0688
CCCTATAA	-0.148

Sequence	PBM E-score
ACGTACTC	0.177
TCCATAAA	0.123
CGATCCTC	-0.156
CTCTGGTC	-0.0874
AAGGCAGA	-0.238
GTCTCCAC	-0.106
GATCCAGA	-0.00579
CAGCGATA	-0.191
AGATAATC	0.0163
CAGGTTCA	-0.196
CTGGACTA	-0.267
CCAAGGAG	-0.0523
CGTGTGAA	0.0381
GCGATCTA	0.0209
ATCGAGAC	-0.117
AGCCATAT	0.0167
ATCGTGCA	0.0523
CCAACTAC	0.0257
CCGCTCAG	0.0132
CCATCGAG	0.0483
TATTAATA	0.0736
CTCCTCGA	-0.0124
ACGGACAC	0.104
CAACACGG	0.0445
CTTCGCGC	0.22

Sequence	PBM E-score
GACACAGA	0.126
CAGCCTAA	-0.0455
AAGGGACT	-0.229
AAGACTAT	0.0259
AAGATTCA	0.0725
CTACTCTA	0.123
CGATTAAA	0.172
GATCTGAC	0.0852
ATTTGGTA	0.145
CCCGGGTC	-0.333
AGCGCGGC	0.115
CGGGTAAA	0.0858
AGGGCTCG	-0.269
AAGAAATG	0.215
CCTCACCA	0.0882
ACCGAGGG	-0.446
AAGTGGTA	-0.0919
ATTTTTGA	0.153
CTGGTCCC	-0.425
CCAACGAG	-0.262
AACTATTA	0.221
ACTTAATG	0.159
ATATTATG	0.291
GTCGCTAA	0.0821
ATATGCAA	0.187

Sequence	PBM E-score
CATCCTCG	0.0458
AGCGTTCC	-0.123
GATTAATC	-0.0489
CTATTGAG	0.115
CACACCTA	-0.0684
CGGGGCCA	-0.234
ACTGGCAT	-0.143
CAATTATG	0.237
ACGCATAT	0.0868
CCTCGTTC	-0.0622
TATTACGA	0.283
ATATTGAT	0.253
ATCAAACA	0.107
AATCCCAA	0.0031
TTTCGAAA	0.223
AGGTACTG	-0.085
GGGACCAC	-0.0412
ATTAGACA	0.0393
ACGGAGAT	-0.0389
AGCCGATG	-0.131
AAATTAAC	0.2
CTGCCACC	-0.0419
ACAAGCGC	-0.0824
ACCGAATC	-0.00093
ACGCATCT	0.079

Sequence	PBM E-score
GCATGTCC	-0.224
CAGTCGCA	-0.0676
TGTAGACA	0.0564
CATGATAA	0.155
CGGCTCAG	0.209
CTGTTCTA	-0.0878
ACGCATAG	-0.0309
CTCGGAAC	-0.156
ATCGTGTA	0.0383
AAGGTCTC	-0.126
TTCGCAAA	0.146
AACCCCTG	-0.373
GCAACGAA	0.16
ATCTAAAC	0.0673
AGTTGATC	0.147
ACTGCCAA	-0.054
AGGAGAAT	-0.038
AGAATATC	0.0571
ACGAACGA	0.0476
AGACATGG	-0.0372
GTTTGTGA	0.0799
AGACGTGA	0.0119
CGTCATGC	0.472
ATCAATGG	-0.0319
CCGATAGG	-0.183

Sequence	PBM E-score
AACTGAGC	-0.152
CCCAGCGC	-0.215
AATTGCAA	0.163
CATGCGCC	0.0487
AACAGGTT	-0.0214
AGTTCATG	-0.0471
CAATCAGC	-0.117
ATGACGTC	0.497
AATTGATG	0.242
AGCCTTAT	-0.0913
GGGATCAA	0.0155
GACGGACA	0.175
CGGTGGAG	-0.325
CTCAAGCC	-0.183
GAGAGAGC	-0.197
CGGCCGAA	0.0148
GAATGCGA	0.114
AGTAGCTA	0.118
CTATCCAG	-0.137
